# Data: PubChem BioAssay (Tox21)
# Several values for one entry are separate records, joined by “and”; a condition that tells them apart may be missing. Equal values may be shown once. This list was built around the results that the source calls inconclusive (neither active nor inactive); the mix of calls is not that of the screen. For some of these results: Potencies of inconclusive entries are doubtful fits and often do not repeat. The source holds several records for some structures; these can differ, active in one and inactive in another. Activity calls are given as the source filed them. Unless noted, the call rests on the fitted dose curve; in most records, active means well fitted curve in the direction sought with a large enough effect in the repeat runs; inconclusive means weak or mixed curves; inactive means no such curve, though single readings can be large; an effect the other way counts as inactive or inconclusive.
# Legend:
# [1] = qHTS assay to identify small molecule agonists of the constitutive androstane receptor (CAR) signaling pathway - cell viability counter screen (AID 1224836); conditions: HepG2-CYP2B6-hCAR viability, CellTiter-Fluor, 23 h, PK11195 added to every well; series mostly up to 92.4 µM; further: nearly all actives have a fitted effect of over 45% in size
# Summary of the method: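 23 h treatment, 37 C, 5% CO2. Cell line: HepG2 stably expressing hCAR with a CYP2B6-2.2kb construct. Co-treatment: PK11195, 0.75 uM final. Read-out: CellTiter-Fluor fluorescence intensity.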
# [2] = molecular target: Luciferin 4-monooxygenase (Photinus pyralis) (UniProt P08659); assay: qHTS assay to identify small molecule inhibitors of firefly luciferase (AID 1224835); further: nearly all actives have a fitted effect of over 25% in size; conditions: purified P. pyralis luciferase, luminescence inhibition; series mostly up to 115 µM
# Summary of the method: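 Inhibition of purified Photinus luciferase is measured by luminescence. Substrate levels (D-luciferin, ATP) sit at their KM values. Each compound is tested in a concentration series.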
# [3] = qHTS assay to identify small molecule agonists of the hypoxia (HIF-1) signaling pathway - cell viability counter screen (AID 1224844; calls by dose curve; further: nearly all actives have a fitted effect of over 50% in size); conditions: HRE-bla ME-180 viability, CellTiter-Glo luminescence, 17 h; series mostly up to 76.8 µM
# Summary of the method: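 Viability counter screen: HRE-bla ME-180 cells plated 5 hrs before compound addition, treated 17 hrs at 37C and 5% CO2, then CellTiter-Glo added after the FRET reporter read; luminescence after 30 min.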
# [4] = qHTS assay to identify small molecule agonists of the hypoxia (HIF-1) signaling pathway (AID 1224846; active means well fitted activation curve with a large enough effect in the signal ratio in the repeat runs, not every such curve was filed as active; inconclusive means weak or mixed curves; the % refers to the signal ratio); conditions: HRE-bla ME-180 cells, beta-lactamase ratio, 17 h; activation: at 76.8 µM (top of the series) unless noted
# Summary of the method: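 Agonist mode reporter screen. ME-180 cells stably expressing bla under HRE control received test compounds in DMSO for 17 hrs (37C, 5% CO2), and beta-lactamase activity was then detected with the CCF4-AM FRET substrate.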
# [5] = qHTS RealTime-Glo MT Cell Viability Assay in HEK293 cells - 32 hour (AID 1224868); conditions: RealTime-Glo luminescence; series mostly up to 76.8 µM; further: nearly all actives have a fitted effect of over 50% in size
# Summary of the method: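 Reads taken at 0, 8, 16, 24, 32 and 40 h from the same wells. HEK293 cells (600/well) carried RealTime-Glo reagents from seeding, with compound added after a 5 h settle at 37 C.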
# [6] = qHTS assay to identify small molecule antagonists of the constitutive androstane receptor (CAR) signaling pathway - cell viability counter screen (AID 1224837); conditions: HepG2-CYP2B6-hCAR viability, CellTiter-Fluor, 23 h, co-treated with 50 nM CITCO; series mostly up to 92.4 µM; further: nearly all actives have a fitted effect of over 45% in size
# Summary of the method: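 Cells are seeded, rested 4 hr at 37 C/5% CO2, dosed with compound (15-point series) and 50 nM CITCO, incubated a further 23 hr, and then CellTiter-Fluor reagent is added before fluorescence is read. The line is HepG2 with stable hCAR and CYP2B6-2.2kb.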
# [7] = qHTS assay to identify small molecule agonists of H2AX (AID 1224845; active means well fitted activation curve with a large enough effect in the signal ratio in the repeat runs, not every such curve was filed as active; inconclusive means weak or mixed curves; the % refers to the signal ratio); conditions: CHO-K1 phospho-H2AX Ser139 HTRF, 3 h; series mostly up to 154 µM
# Summary of the method: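 Phospho-H2AX Ser139 measured by HTRF (ex 320 nm; em 665 and 620 nm) after 24 hr antibody incubation. Compounds, 15 concentrations, 0.76% DMSO, were applied to CHO-K1 cells for 3hr at 37C before lysis.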
# [8] = qHTS assay to identify small molecule antagonists of the estrogen related receptor (ERR) signaling pathway from Tox21 library (AID 1224848); conditions: ERR reporter cell line, luciferase antagonist mode, 18 h; series mostly up to 92.4 µM; further: nearly all actives have a fitted effect of over 50% in size
# Summary of the method: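 Luciferase luminescence (ONE-Glo, 30 min room temperature) was the read-out. Cells of the NTP-supplied ERR line, 2,000 per well, were given 6 h at 37 C before compound addition in DMSO and 18 h exposure at 37 C.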
# [9] = molecular target: Nuclear receptor subfamily 1 group I member 3 (Homo sapiens) (UniProt Q14994); assay: qHTS assay to identify small molecule agonists of the constitutive androstane receptor (CAR) signaling pathway (AID 1224839); conditions: HepG2 hCAR CYP2B6-luciferase, agonist mode, 24 h; series mostly up to 92.4 µM; further: nearly all actives have a fitted effect of over 15% in size
# Summary of the method: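 Compounds tested at 15 concentrations on HepG2 cells stably harbouring hCAR and CYP2B6-2.2kb reporter constructs, co-treated with PK11195 (0.75 uM final), 24 h at 37 C; luminescent reporter signal quantified.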
# [10] = qHTS assay to identify small molecule antagonists of the estrogen related receptor signaling pathway with the pleiotropic PPARgamma coactivator (PGC) from Tox21 10K library - cell viability counter screen (AID 1224840; active means well fitted cell-killing curve with a large enough effect in the repeat runs, not every such curve was filed as active; inconclusive means weak or mixed curves, or effect the other way; inactive means no such curve, though single readings can be large or run the other way; further: nearly all actives have a fitted effect of over 40% in size); conditions: PGC/ERR reporter cells viability, CellTiter-Fluor, 17.5 h; series mostly up to 92.4 µM
# Summary of the method: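 Cell viability is measured by CellTiter-Fluor fluorescence in PGC/ERR cells that receive compounds after a 6-hour attachment period and are then incubated 17.5 hours at 37 C.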
# [11] = qHTS assay to identify small molecule antagonists of the estrogen related receptor signaling pathway with the pleiotropic PPARgamma coactivator (PGC) from Tox21 10K library (AID 1224841; call rule not given here; further: actives are mostly falling curves and most rising ones were filed inactive; nearly all actives have a fitted effect of over 50% in size); conditions: PGC/ERR reporter cell line, ONE-Glo luciferase, 18 h; series mostly up to 92.4 µM
# Summary of the method: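 Cells stably carrying the PGC/ERR reporter, seeded at 2,000 per well, received pin-transferred compounds 6 h post-plating. Exposure lasted 18 h at 37 C. Signal: One-Glo luminescence.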
# [12] = molecular target: Thyrotropin receptor (Homo sapiens) (UniProt P16473); assay: qHTS assay to identify small molecule agonists of the thyroid stimulating hormone receptor (TSHR) signaling pathway (AID 1224843; calls by dose curve; further: nearly all actives have a fitted effect of over 45% in size); conditions: TSHR-HEK293 cells, cAMP HTRF, agonist mode, 30 min; activation: at 92.4 µM (top of the series) unless noted
# Summary of the method: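 Agonist activity read as cAMP rise via d2/cryptate HTRF competition, 1 h room-temperature detection, in HEK293 cells expressing TSHR. Fifteen-point titrations, each run in triplicate, with a 30 min room-temperature incubation beforehand.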
# [13] = qHTS RealTime-Glo MT Cell Viability Assay in HepG2 cells - 24 hour (AID 1224867); conditions: RealTime-Glo luminescence; series mostly up to 76.8 µM; further: nearly all actives have a fitted effect of over 50% in size
# Summary of the method: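 HepG2 suspension premixed with RealTime-Glo reagents is plated at 600 cells per well and left 5 h at 37 C/5% CO2. Compounds in DMSO then go in, and bioluminescence reflecting viable cell number is recorded over 40 h.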
# [14] = qHTS assay to identify small molecule agonists of the estrogen related receptor signaling pathway with the pleiotropic PPARgamma coactivator (PGC) from Tox21 10K library (AID 1224842); conditions: PGC/ERR reporter cell line, luciferase ONE-Glo, 18 h; series mostly up to 42.5 µM; further: nearly all actives have a fitted effect of over 15% in size
# Summary of the method: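 Luminescence from One-Glo (30 min, room temperature) measured after PGC/ERR cells had 18 h at 37 C with pinned compound (23 nL in DMSO). Cells had been seeded at 2,000 per well and pre-incubated 6 h.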
# [15] = qHTS assay to identify small molecule agonists of H2AX - cell viability counter screen (AID 1224847; calls by dose curve; further: nearly all actives have a fitted effect of over 30% in size); conditions: CHO-K1 viability, CellTiter-Glo luminescence, 3 h; series mostly up to 154 µM
# Summary of the method: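 Compounds tested at 15 concentrations were incubated 3 hr at 37C with wild-type CHO-K1 cells; cellular ATP-based luminescence (CellTiter-Glo) indicated viability.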
# [16] = A CellTox Green Cytotoxicity Assay to monitor cytotoxicity in HEK293 cells - 0 hour (AID 1224869); conditions: CellTox Green fluorescence; series mostly up to 76.8 µM; further: nearly all actives have a fitted effect of over 50% in size
# Summary of the method: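 Dead-cell fluorescence measured kinetically: asymmetric cyanine dye, HEK293, 600 cells/well, 5 h settle, 23 nL cpd/DMSO, 37 C, reads 0–40 h every 8 h.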
# Potency means the concentration at half of the fitted maximal effect; tags describe the fitted curve by direction and shape or compound fluorescence and quenching.
# Chain of UniProt Q14994 (Q14994 whole entry, looked up): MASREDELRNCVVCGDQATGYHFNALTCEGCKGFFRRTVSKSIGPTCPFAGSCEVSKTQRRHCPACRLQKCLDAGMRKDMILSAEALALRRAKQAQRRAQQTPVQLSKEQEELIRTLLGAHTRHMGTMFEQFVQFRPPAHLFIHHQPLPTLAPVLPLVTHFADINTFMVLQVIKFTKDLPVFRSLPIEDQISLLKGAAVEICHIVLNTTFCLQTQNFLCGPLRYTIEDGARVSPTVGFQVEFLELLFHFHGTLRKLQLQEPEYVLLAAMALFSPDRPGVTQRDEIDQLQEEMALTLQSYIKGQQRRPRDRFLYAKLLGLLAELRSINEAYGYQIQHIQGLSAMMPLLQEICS
# Chain of UniProt P16473 (P16473 whole entry, looked up): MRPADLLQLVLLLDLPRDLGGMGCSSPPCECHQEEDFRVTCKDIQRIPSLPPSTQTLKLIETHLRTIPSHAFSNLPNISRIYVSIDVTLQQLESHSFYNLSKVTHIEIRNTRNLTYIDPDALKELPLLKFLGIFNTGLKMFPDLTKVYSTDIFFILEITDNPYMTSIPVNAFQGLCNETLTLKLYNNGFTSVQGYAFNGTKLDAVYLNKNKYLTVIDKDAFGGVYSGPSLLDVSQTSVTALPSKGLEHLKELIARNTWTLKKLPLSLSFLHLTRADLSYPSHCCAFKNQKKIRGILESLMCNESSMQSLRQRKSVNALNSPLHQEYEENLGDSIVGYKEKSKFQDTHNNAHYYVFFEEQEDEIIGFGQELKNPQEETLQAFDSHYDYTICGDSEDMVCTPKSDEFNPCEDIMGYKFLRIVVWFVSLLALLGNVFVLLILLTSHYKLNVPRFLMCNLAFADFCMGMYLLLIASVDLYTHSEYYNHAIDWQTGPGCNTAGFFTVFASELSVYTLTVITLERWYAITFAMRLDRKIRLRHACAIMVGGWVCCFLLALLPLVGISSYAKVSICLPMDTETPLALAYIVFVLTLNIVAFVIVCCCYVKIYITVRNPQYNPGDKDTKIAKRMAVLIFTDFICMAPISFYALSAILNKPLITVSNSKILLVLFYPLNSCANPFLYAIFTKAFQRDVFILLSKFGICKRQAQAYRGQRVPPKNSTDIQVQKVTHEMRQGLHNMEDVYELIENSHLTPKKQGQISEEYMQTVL
# Chain of UniProt P08659 (P08659 whole entry, looked up): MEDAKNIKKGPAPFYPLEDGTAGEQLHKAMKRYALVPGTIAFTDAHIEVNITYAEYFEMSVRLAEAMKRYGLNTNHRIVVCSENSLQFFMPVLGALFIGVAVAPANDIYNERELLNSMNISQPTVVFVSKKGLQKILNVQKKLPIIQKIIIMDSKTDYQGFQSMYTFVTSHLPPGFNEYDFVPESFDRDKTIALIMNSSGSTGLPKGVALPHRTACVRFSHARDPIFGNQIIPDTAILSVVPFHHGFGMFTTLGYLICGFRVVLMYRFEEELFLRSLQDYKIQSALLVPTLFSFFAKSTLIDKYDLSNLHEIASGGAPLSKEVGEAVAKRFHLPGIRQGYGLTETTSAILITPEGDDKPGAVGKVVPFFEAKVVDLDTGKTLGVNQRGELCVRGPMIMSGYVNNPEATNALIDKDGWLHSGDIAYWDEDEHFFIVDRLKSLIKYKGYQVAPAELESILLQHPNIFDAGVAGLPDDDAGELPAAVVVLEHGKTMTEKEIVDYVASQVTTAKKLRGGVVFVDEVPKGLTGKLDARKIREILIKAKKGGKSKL
compound,measurement,setting,value
CCCc1c(OCCCCc2nn[nH]n2)ccc(C(C)=O)c1O,Potency,[1],inactive
C/C(=C(/OCCOc1ccc(Cl)cc1)c1ccc(Cl)cc1Cl)n1ccnc1,Potency,[2],inactive
same,Potency,[3],"inconclusive: 26.8 µM [cytotoxic, single point]"
same,Potency,[4],inconclusive: 21.3 µM [partial curve]
same,Potency,[5],"inconclusive: 21.3 µM [cytotoxic, partial curve]"
C[C@@H]1C[C@H]2[C@@H]3CCC4=CC(=O)C=C[C@]4(C)[C@@]3(F)[C@@H](O)C[C@]2(C)[C@@]1(O)C(=O)COP(=O)(O)O,Potency,[1],inactive
CCCCOC(=O)CCCCCCCCC(=O)OCCCC,Potency,[1],inactive
CC(CCc1ccccc1)NCC(O)c1ccc(O)c(C(N)=O)c1 (stereo not drawn),Potency,[1],active: 30.6 µM
same,Potency,[6],"inconclusive: 30.6 µM [cytotoxic, partial curve]"
CC(C)CCCCCCCCCCCCCCC(=O)O,Potency,[2],active: 35.6 µM
same,Potency,[7],"inconclusive: 127 µM [activator, single point]"
same,Potency,[4],inconclusive: 24.5 µM [full curve]
same,Potency,[8],"inconclusive: 48.6 µM [inhibitor, partial curve, poor fit]"
same,Potency,[5],"inconclusive: 34.7 µM [rising, partial curve]"
C=Cc1ccccn1,Potency,[1],inactive
CN(C)c1ccc2nc3ccc(=[N+](C)C)cc-3sc2c1,Potency,[1],"inconclusive: 20.8 µM [cytotoxic, partial curve] and active: 24.3 µM and active: 13.3 µM"
same,Potency,[6],"inconclusive: 11.7 µM [cytotoxic, partial curve] and active: 27.3 µM and active: 11.9 µM"
same,Potency,[9],"inconclusive: 6.59 µM [activator, full curve, poor fit] and active: 1.54 µM and active: 750 nM"
same,Potency,[10],"inconclusive: 4.22 µM [cytotoxic, full curve]"
same,Potency,[11],active: 1.86 µM and active: 1.93 µM and active: 2.66 µM
same,Potency,[12],"inconclusive: 3.3 µM [falling, full curve] and inconclusive: 2.43 µM [falling, full curve] and inconclusive: 1.68 µM [falling, full curve]"
same,Potency,[7],"inconclusive: 3.43 µM [cytotoxic, full curve] and inconclusive: 4.5 µM [cytotoxic, full curve] and inconclusive: 3.48 µM [cytotoxic, full curve]"
same,Potency,[13],active: 16.7 µM and active: 12.3 µM and active: 19 µM
COC(=O)C1=C(C)NC(C)=C(C(=O)OCCN(C)Cc2ccccc2)C1c1cccc([N+](=O)[O-])c1 (stereo not drawn),Potency,[1],"inconclusive: 26.6 µM [cytotoxic, partial curve]"
same,Potency,[6],active: 43 µM and active: 23.7 µM
same,Potency,[10],active: 30.5 µM and active: 26.6 µM
same,Potency,[12],"active: 30.5 µM and inconclusive: 33.5 µM [activator, single point]"
same,Potency,[3],inconclusive: 54.6 µM [cytotoxic]
same,Potency,[13],active: 24.4 µM and active: 10.7 µM
O=S(=O)(c1cccc2cnccc12)N1CCCNCC1,Potency,[1],inconclusive: 29.8 µM [cytotoxic]
same,Potency,[6],"inconclusive: 23.7 µM [cytotoxic, partial curve]"
same,Potency,[11],active: 23.7 µM
same,Potency,[8],"inconclusive: 33.5 µM [inhibitor, single point]"
COc1cccc2c1C(=O)c1c(O)c3c(c(O)c1C2=O)C[C@@](O)(C(C)=O)C[C@@H]3O[C@H]1C[C@H](N)[C@H](O)[C@H](C)O1,Potency,[1],active: 19.4 µM and active: 1.19 µM
same,Potency,[6],active: 2.75 µM and active: 211 nM
same,Potency,[10],"active: 27.5 µM and inconclusive: 1.88 µM [cytotoxic, full curve]"
same,Potency,[11],"inconclusive: 77.4 µM [falling, partial curve, poor fit]"
same,Potency,[14],"inconclusive: 0.075 µM [activator, full curve, poor fit]"
same,Potency,[3],active: 0.553 µM
same,Potency,[15],"inconclusive: 128 µM [cytotoxic, single point]"
same,Potency,[8],"inconclusive: 615 nM [inhibitor, partial curve, poor fit] and inactive"
same,Potency,[13],"inconclusive: 60.1 nM [falling, full curve, poor fit]"
same,Potency,[16],"inconclusive: 26.8 µM [activator, partial curve, poor fit]"
